In all, about 33,000 sequences were measured (“E-score (-0.5 to 0.5)”: median about -0.016, highest 2% from about 0.32 on). The list shows a part of the results.
Target: T1, Stp1 (UniProt B3LFK1)
T1 sequence: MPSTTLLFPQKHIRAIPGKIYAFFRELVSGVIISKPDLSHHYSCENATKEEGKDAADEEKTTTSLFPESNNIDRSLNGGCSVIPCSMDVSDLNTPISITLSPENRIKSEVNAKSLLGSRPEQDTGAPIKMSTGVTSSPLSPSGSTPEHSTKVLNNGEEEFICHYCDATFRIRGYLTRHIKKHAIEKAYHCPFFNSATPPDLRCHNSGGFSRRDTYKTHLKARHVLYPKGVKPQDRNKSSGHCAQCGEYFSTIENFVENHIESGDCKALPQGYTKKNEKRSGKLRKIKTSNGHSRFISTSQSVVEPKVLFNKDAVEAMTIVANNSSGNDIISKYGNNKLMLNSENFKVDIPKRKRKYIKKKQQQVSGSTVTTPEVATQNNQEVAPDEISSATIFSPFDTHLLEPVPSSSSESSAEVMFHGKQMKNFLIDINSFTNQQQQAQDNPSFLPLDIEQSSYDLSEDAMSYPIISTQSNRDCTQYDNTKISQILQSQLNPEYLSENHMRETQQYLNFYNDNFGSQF
Assay: PBM E-score (8-mer binding enrichment) (E-score (-0.5 to 0.5)); higher = stronger / more preferred TF binding; most listed sequences are background and not binding sites
Settings: protein concentration: 200 nM; construct: GST-full length
Outline: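 Full-length yeast transcription factors or their DNA-binding domains, GST-tagged and expressed with PURExpress, were applied at about 100-200 nM to universal all-10-mer Agilent arrays. These arrays had been made double-stranded by primer extension on fresh or once-stripped slides. Detection used fluorescent anti-GST, normalisation used masliner, and E-scores for ungapped eight-base words pooled with reverse complements came from the Universal PBM Analysis Suite.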

| Sequence | PBM E-score |
| --- | --- |
| CTTTGCGC | 0.202 |
| CATTTCGC | 0.0364 |
| ATCAAGCG | 0.159 |
| GATGTGTA | -0.0694 |
| CCATTGGA | -0.154 |
| CGACGGAC | 0.185 |
| CCGACGGC | 0.124 |
| CGTGATGC | 0.0689 |
| CGGGATGC | -0.122 |
| GTTACTCA | 0.191 |
| CTTGCGCA | 0.223 |
| AGATCTTA | 0.00491 |
| GCGCATTA | 0.0169 |
| GTTTGTGA | 0.0176 |
| AGACATGG | -0.0378 |
| CGTCATGC | 0.117 |
| ATCAATGG | -0.0372 |
| AACTGAGC | -0.0352 |
| CCGATAGG | -0.171 |
| AGACGTGA | -0.0783 |
| GCAACGAA | 0.163 |
| ATCTAAAC | 0.0888 |
| TTCGCAAA | 0.177 |
| AACCCCTG | -0.38 |
| AAGGTCTC | -0.0862 |

| Sequence | PBM E-score |
| --- | --- |
| AGAATATC | 0.0464 |
| ACGAACGA | 0.0181 |
| ACTGCCAA | -0.0965 |
| AGTTGATC | -0.0149 |
| AGGAGAAT | -0.17 |
| AGTTCATG | 0.0464 |
| CAATCAGC | -0.136 |
| AACAGGTT | -0.237 |
| ATGACGTC | -0.109 |
| AATTGATG | 0.229 |
| AATTGCAA | 0.118 |
| CCCAGCGC | -0.0526 |
| CATGCGCC | 0.298 |
| AGCATACA | 0.125 |
| GTTTCGGA | 0.0805 |
| GGTAGCAC | -0.208 |
| AGTAGCTA | -0.16 |
| CTATCCAG | -0.0455 |
| GAATGCGA | 0.0234 |
| CCTCCCAG | -0.26 |
| CACAACGC | 0.115 |
| AAGTAATT | 0.076 |
| AGGCCGTG | 0.307 |
| ATTATTTC | 0.127 |
| GACGGACA | 0.08 |

| Sequence | PBM E-score |
| --- | --- |
| GGGATCAA | -0.182 |
| AGCCTTAT | 0.0743 |
| CGGCCGAA | 0.171 |
| GAGAGAGC | -0.0408 |
| CGGTGGAG | -0.288 |
| CTCAAGCC | -0.193 |
| ACGACTGA | -0.0264 |
| CTATAGTA | 0.046 |
| AGTAGGCG | 0.254 |
| CAACTCGA | -0.045 |
| TGAAACCA | 0.0636 |
| TACTGTAA | 0.021 |
| CGCCATGA | 0.0892 |
| ATTGTCTC | 0.0966 |
| GGGACCCA | -0.164 |
| ACCCTCAA | -0.276 |
| ATATCAGG | 0.0288 |
| AATTTCCG | 0.135 |
| ATCCTTGA | -0.0743 |
| CGAGATGC | -0.0262 |
| CACGCGCA | 0.0446 |
| AATAGCTG | -0.0978 |
| CCTCCGCC | -0.167 |
| GGTGGGAA | -0.106 |
| ATTTCAAA | 0.134 |

| Sequence | PBM E-score |
| --- | --- |
| AAGTGTAG | -0.00307 |
| CGGTCCGA | -0.132 |
| ACTCTTAC | -0.0417 |
| ACTAGGAG | -0.202 |
| AGAAGCGC | 0.189 |
| AATTGAAG | 0.0889 |
| TAGAAAGA | -0.0995 |
| AATAGGAG | -0.0266 |
| GACGCAGC | -0.0122 |
| ATCTTTCA | -0.00864 |
| AGTCTTGC | 0.0474 |
| AGTCCAAC | -0.192 |
| GGGGTTCA | -0.288 |
| AGATTTGA | 0.0294 |
| GCGCCCTA | 0.342 |
| AATAAGTA | 0.0273 |
| CCGGTCGC | 0.0593 |
| CCTGAAAA | -0.0483 |
| ATAGTGAT | -0.0735 |
| GCCCAGAC | -0.352 |
| ACAAGCAC | 0.0508 |
| GTGTACGA | 0.204 |
| AAAAAGTG | 0.204 |
| CTGGTTCA | -0.185 |
| CATACCCA | 0.0235 |

| Sequence | PBM E-score |
| --- | --- |
| AGGGGACG | -0.3 |
| AAGCCCTT | -0.154 |
| GCCGTGGA | 0.402 |
| CATTTATA | 0.0707 |
| CGACACTA | -0.175 |
| AGAACAAC | -0.0648 |
| TACCGGCA | -0.0665 |
| CACCGGTC | -0.342 |
| AGGGTTGA | -0.321 |
| AAATCCTT | -0.0347 |
| CAGTAGGA | 0.067 |
| ATAACAGA | 0.138 |
| AACAAAAC | 0.179 |
| ACCGACTG | -0.213 |
| CACACGCG | 0.227 |
| CCTTCAGA | -0.14 |
| CCGGACGA | -0.0479 |
| CATGTCCG | -0.137 |
| AGCGCTAG | -0.123 |
| CTACCTCA | -0.152 |
| ACGCAAGG | 0.187 |
| AGACCGGG | -0.185 |
| CTCGAATC | -0.205 |
| CCCGGGCA | 0.0386 |
| ACACAAGA | 0.0286 |

| Sequence | PBM E-score |
| --- | --- |
| AGAACACC | -0.147 |
| CTACATTA | 0.033 |
| CACAAACA | 0.172 |
| ATCTAATG | 0.0142 |
| CCATTAGA | -0.237 |
| AGAAGTCT | -0.207 |
| ATGTTAGG | 0.00885 |
| AATCTTCC | -0.243 |
| GAGATTCC | -0.0223 |
| AAACTTAA | 0.235 |
| CCCGTTCC | -0.00751 |
| AGTTAGGG | -0.2 |
| GAGTCCCA | -0.134 |
| ATTACGAC | 0.0495 |
| ACGGCCCG | 0.275 |
| AATTGTAC | 0.212 |
| ACAAGAAT | 0.159 |
| CAGAGCAG | -0.0998 |
| ACTTCACA | -0.0788 |
| CCCAACGC | -0.0865 |
| CTTAAGCC | 0.118 |
| GAGTGCGA | -0.046 |
| CAACATAC | 0.0911 |
| GGTTTAAC | 0.0879 |
| GCATCCAC | -0.0284 |

| Sequence | PBM E-score |
| --- | --- |
| CTGGGAAC | 0.0375 |
| ACTTTGGA | 0.0914 |
| GACTTAAA | -0.131 |
| ACTGTTTG | -0.00198 |
| AGTATACA | 0.0474 |
| ATGCGTTG | 0.00857 |
| ACTCTCTC | -0.083 |
| ATATAACA | 0.141 |
| CTATGAAA | -0.117 |
| ATTGATAG | -0.0347 |
| ACACTTCT | -0.156 |
| AGGGCGGC | 0.14 |
| CAGCAGTC | -0.259 |
| CCATATAC | 0.135 |
| GCCAGAAA | 0.00732 |
| CTGTGGTA | 0.0507 |
| AACCTTAC | 0.129 |
| CGCTGAGA | 0.0916 |
| TGCGTACA | 0.0609 |
| TACAACAA | 0.108 |
| ACTGTCCG | -0.147 |
| GTCTGTTA | 0.0512 |

Source: the supplement of paper PMC3334620
